# Measurements taken from the supplement of paper PMC9135407.
# Several values for one entry are separate records, joined by “and”; a condition that tells them apart may be missing. Equal entries are not always repeated. Structures can show the parent of a compound that is named as a salt. Among all 5,800 compounds or so, about 620 (11%) showed activity.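 How the source made its calls: active = score above a cut-off or among the top three wells of a plate; in these data no inactive exceeds 0.85.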 The entries are a selection whose mix differs from that of the whole data set.
# Tested on: primary human hepatic stellate cells (donor 1)
# Experiment: scaled lipid accumulation score (0 = DMSO-like, 1 = nortriptyline-like); higher = stronger HSC inactivation (lipid re-accumulation), active = hit call of the paper
# Settings: 48 h
# [1] = library stock concentration: 80 uM
# [2] = library stock concentration: 400 uM
# [3] = library stock concentration: 2 mM
# [4] = library stock concentration: 3.33 mM
# [5] = library stock concentration: 10 mM
# [6] = library stock concentration: 1 mM
smiles,measurement,setting,value
O=C(c1ccc(C(=O)N2CCC(N3CCCC3)CC2)c(Nc2ccccc2)c1)N1CCC(N2CCCC2)CC1,scaled lipid accumulation score,[1],inactive: ≤ 0
same,scaled lipid accumulation score,[2],inactive: ≤ 0
same,scaled lipid accumulation score,[3],inactive: ≤ 0
same,scaled lipid accumulation score,[4],inactive: ≤ 0
same,scaled lipid accumulation score,[5],inactive: 0.002 and inactive: ≤ 0
OC[C@H]1O[C@@H](Oc2ccc(O)cc2)[C@H](O)[C@@H](O)[C@@H]1O [Arbutin],scaled lipid accumulation score,,inactive: ≤ 0
same,scaled lipid accumulation score,[4],inactive: ≤ 0
same,scaled lipid accumulation score,[5],inactive: ≤ 0
CCCCC[C@H](O)/C=C/[C@@H]1[C@@H](C/C=C\CCCC(=O)NC(CO)CO)[C@@H](O)C[C@H]1O [Prostaglandin F2.alpha. serinol amide],scaled lipid accumulation score,[6],inactive: ≤ 0
CNCCC(Oc1ccc(C(F)(F)F)cc1)c1ccccc1.Cl (centres undefined) [Fluoxetine],scaled lipid accumulation score,library stock concentration: 5.8 mM,active: 0.96
OCCN1CCN(CCCN2c3ccccc3Sc3ccc(Cl)cc32)CC1 [Perphenazine],scaled lipid accumulation score,,inactive: 0.75
same,scaled lipid accumulation score,library stock concentration: 5 mM,inactive: 0.605
same,scaled lipid accumulation score,[5],inactive: 0.329
CN(C)CCc1c[nH]c2ccc(Cn3cncn3)cc12 [Rizatriptan benzoate],scaled lipid accumulation score,library stock concentration: 5.1 mM,inactive: ≤ 0
CN(C)CCc1c[nH]c2ccc(Cn3cncn3)cc12,scaled lipid accumulation score,[5],inactive: ≤ 0
CN(C)CCc1c[nH]c2ccc(Cn3cncn3)cc12 [Rizatriptan Benzoate],scaled lipid accumulation score,[4],inactive: ≤ 0
same,scaled lipid accumulation score,[5],inactive: ≤ 0
"NCCCCCCCCCCN [1,10-Diaminodecane]",scaled lipid accumulation score,[5],inactive: ≤ -0.052
O=[N+]([O-])c1ccc2c(c1)S(=O)(=O)C=C2 [Stattic],scaled lipid accumulation score,[4],active: 1.25
CC(=O)Oc1cccc(O)c1 [Resorcinol monoacetate],scaled lipid accumulation score,[5],inactive: 0.063
same,scaled lipid accumulation score,library stock concentration: 13.1 mM,inactive: ≤ 0
CN[C@@H]1C[C@H]2O[C@@](C)([C@@H]1OC)n1c3ccccc3c3c4c(c5c6ccccc6n2c5c31)C(=O)N[C@H]4O,scaled lipid accumulation score,[4],active: 1.21
CCN1CCN(C(=O)N[C@@H](C(=O)N[C@@H]2C(=O)N3[C@@H]2SC(C)(C)[C@@H]3C(=O)O)c2ccccc2)C(=O)C1=O [Piperacillin sodium],scaled lipid accumulation score,[5],inactive: ≤ 0
CCN1CCN(C(=O)N[C@@H](C(=O)N[C@@H]2C(=O)N3[C@@H]2SC(C)(C)[C@@H]3C(=O)O)c2ccccc2)C(=O)C1=O [Piperacillin sodium salt],scaled lipid accumulation score,,inactive: ≤ 0
CCN1CCN(C(=O)N[C@@H](C(=O)N[C@@H]2C(=O)N3[C@@H]2SC(C)(C)[C@@H]3C(=O)O)c2ccccc2)C(=O)C1=O,scaled lipid accumulation score,[5],inactive: ≤ 0
CCN1CCN(C(=O)N[C@@H](C(=O)N[C@@H]2C(=O)N3[C@@H]2SC(C)(C)[C@@H]3C(=O)O)c2ccccc2)C(=O)C1=O [Piperacillin Sodium],scaled lipid accumulation score,[4],inactive: ≤ 0
same,scaled lipid accumulation score,[5],inactive: ≤ -0.001
Brc1c(Br)c(Br)c2n[nH]nc2c1Br [Casein Kinase II Inhibitor I],scaled lipid accumulation score,[4],inactive: ≤ 0
CN(NC(=O)CC(=O)NN(C)C(=S)c1ccccc1)C(=S)c1ccccc1 [Elesclomol (STA-4783)],scaled lipid accumulation score,[4],inactive: ≤ 0
same,scaled lipid accumulation score,[5],inactive: ≤ 0
"Nc1nc2c(nc(Br)n2[C@@H]2O[C@@H]3COP(=O)(O)O[C@H]3[C@H]2O)c(=O)[nH]1 [8-Bromo-cGMP, sodium salt]",scaled lipid accumulation score,[5],inactive: 0.026
CCCCCC(=O)/C=C/[C@H]1[C@H](O)CC(=O)[C@@H]1CCCCCCC(=O)O [15-keto Prostaglandin E1],scaled lipid accumulation score,[6],inactive: ≤ 0
CN(C)C/C=C/C(=O)Nc1ccc(C(=O)Nc2cccc(Nc3nccc(-c4cccnc4)n3)c2)cc1,scaled lipid accumulation score,[5],active: 1.15
CO[C@@H]1[C@@H](OC(N)=O)[C@@H](O)[C@H](Oc2ccc3c(O)c(NC(=O)c4ccc(O)c(CC=C(C)C)c4)c(=O)oc3c2C)OC1(C)C [Novobiocin sodium],scaled lipid accumulation score,[5],inactive: ≤ 0
CO[C@@H]1[C@@H](OC(N)=O)[C@@H](O)[C@H](Oc2ccc3c(O)c(NC(=O)c4ccc(O)c(CC=C(C)C)c4)c(=O)oc3c2C)OC1(C)C [Novobiocin Sodium],scaled lipid accumulation score,[4],inactive: 0.014
same,scaled lipid accumulation score,[5],inactive: ≤ 0
CO[C@@H]1[C@@H](OC(N)=O)[C@@H](O)[C@H](Oc2ccc3c(O)c(NC(=O)c4ccc(O)c(CC=C(C)C)c4)c(=O)oc3c2C)OC1(C)C [Novobiocin sodium salt],scaled lipid accumulation score,,inactive: ≤ 0
O=Nc1c(-c2c(O)[nH]c3cc(Br)ccc23)[nH]c2ccccc12,scaled lipid accumulation score,[1],inactive: ≤ 0
same,scaled lipid accumulation score,[2],inactive: 0.085
same,scaled lipid accumulation score,[3],inactive: 0.012
same,scaled lipid accumulation score,[4],inactive: ≤ -0.009
same,scaled lipid accumulation score,[5],inactive: 0.557 and inactive: ≤ 0
O=Nc1c(-c2c(O)[nH]c3cc(Br)ccc23)[nH]c2ccccc12 [GSK-3 Inhibitor IX],scaled lipid accumulation score,[4],inactive: 0.032
CCCCC(CC)CN1CCC(n2cc(CNC)nn2)CC1 (centres undefined),scaled lipid accumulation score,[5],active: 0.988
COc1ccc(S(=O)(=O)N2c3ccc(Cl)cc3[C@](O)(c3ccccc3Cl)[C@@H]2C(=O)N2CCC[C@H]2C(N)=O)cc1OC,scaled lipid accumulation score,[5],inactive: 0.02
COc1cc(OC)c(C=C2C(=O)Nc3ccccc32)c(OC)c1,scaled lipid accumulation score,[4],inactive: ≤ 0
same,scaled lipid accumulation score,[5],inactive: ≤ 0
CCN(CC)CC1CCN(c2ncc3ncnc(Nc4ccc(F)c(Cl)c4)c3n2)CC1.Cl.Cl [BIBU 1361 dihydrochloride],scaled lipid accumulation score,[5],active: 1.06
CC(=O)OCOC(=O)CN(CC(=O)OCOC(C)=O)c1ccccc1OCCOc1ccccc1N(CC(=O)OCOC(C)=O)CC(=O)OCOC(C)=O,scaled lipid accumulation score,[4],inactive: ≤ -0.009
same,scaled lipid accumulation score,[5],inactive: 0.697
CN1CCCCC1CCN1c2ccccc2Sc2ccc([S+](C)[O-])cc21 (centres undefined) [Mesoridazine],scaled lipid accumulation score,[5],inactive: 0.22
CN1CCCCC1CCN1c2ccccc2Sc2ccc([S+](C)[O-])cc21 (centres undefined) [Mesoridazine besylate],scaled lipid accumulation score,,inactive: 0.537
same,scaled lipid accumulation score,library stock concentration: 5.2 mM,inactive: 0.506
CC(C)C[C@H](NC(=O)[C@H](CCc1ccccc1)NC(=O)CN1CCOCC1)C(=O)N[C@@H](Cc1ccccc1)C(=O)N[C@@H](CC(C)C)C(=O)[C@@]1(C)CO1 [Carfilzomib (PR-171)],scaled lipid accumulation score,[4],inactive: 0.051
same,scaled lipid accumulation score,[5],inactive: 0.526
COc1ccc(C2(CNC(=O)c3ccc(NC(=O)c4ccco4)cc3)CCOCC2)cc1,scaled lipid accumulation score,[1],inactive: ≤ 0
same,scaled lipid accumulation score,[2],inactive: ≤ 0
same,scaled lipid accumulation score,[3],inactive: ≤ 0
same,scaled lipid accumulation score,[5],inactive: ≤ 0
Cc1c(C(=O)NC2CCCCC2)sc2nc3ccc(N)cc3n12,scaled lipid accumulation score,[5],inactive: 0.02
COc1ccc(-n2c(C)c([N+](=O)[O-])c3ccc(O)cc32)cc1,scaled lipid accumulation score,[4],inactive: 0.252
same,scaled lipid accumulation score,[5],inactive: 0.703
O=S(=O)(c1ccccc1)c1cnc2c(N3CCNCC3)cccc2c1,scaled lipid accumulation score,[4],inactive: 0.285
NC(=O)N/N=C/c1ccc([N+](=O)[O-])o1 [Nitrofural],scaled lipid accumulation score,,inactive: ≤ 0
same,scaled lipid accumulation score,[4],inactive: ≤ 0
same,scaled lipid accumulation score,[5],inactive: 0.049
NC(=O)N/N=C/c1ccc([N+](=O)[O-])o1 [Nitrofurazone],scaled lipid accumulation score,[5],inactive: ≤ 0
O=C(O[C@H]1CN2CCC1CC2)N1CCc2ccccc2[C@@H]1c1ccccc1,scaled lipid accumulation score,[5],inactive: 0.352
O=C(O[C@H]1CN2CCC1CC2)N1CCc2ccccc2[C@@H]1c1ccccc1 [Solifenacin succinate],scaled lipid accumulation score,[4],inactive: 0.293
CC1=CC(=O)NS(=O)(=O)O1,scaled lipid accumulation score,[5],inactive: 0.08
CC1=CC(=O)NS(=O)(=O)O1 [Acesulfame Potassium],scaled lipid accumulation score,[4],inactive: 0.002
same,scaled lipid accumulation score,[5],inactive: ≤ 0
CCCCC/C=C\C/C=C\C/C=C\C/C=C\CCCC(=O)OCC [Arachidonic Acid ethyl ester],scaled lipid accumulation score,[6],inactive: ≤ 0
CN(C)CCC[C@@]1(c2ccc(F)cc2)OCc2cc(C#N)ccc21 [Escitalopram Oxalate],scaled lipid accumulation score,[4],inactive: ≤ 0
same,scaled lipid accumulation score,[5],inactive: 0.644
CN(C)CCC[C@@]1(c2ccc(F)cc2)OCc2cc(C#N)ccc21,scaled lipid accumulation score,[5],inactive: 0.614
CN(C)CCC[C@@]1(c2ccc(F)cc2)OCc2cc(C#N)ccc21 [Escitalopram],scaled lipid accumulation score,library stock concentration: 6.2 mM,inactive: 0.197
CCCC(=O)Nc1ncnc2c1ncn2[C@@H]1O[C@@H]2COP(=O)(O)O[C@H]2[C@H]1OC(=O)CCC [Bucladesine sodium salt],scaled lipid accumulation score,,inactive: ≤ 0
CCCC(=O)Nc1ncnc2c1ncn2[C@@H]1O[C@@H]2COP(=O)(O)O[C@H]2[C@H]1OC(=O)CCC [Bucladesine],scaled lipid accumulation score,[5],inactive: 0.091
"CCCC(=O)Nc1ncnc2c1ncn2[C@@H]1O[C@@H]2COP(=O)(O)O[C@H]2[C@H]1OC(=O)CCC [Dibutyryl-cAMP, sodium salt]",scaled lipid accumulation score,[5],inactive: ≤ -0.006
O=C(c1ccc(F)cc1)N1CCCC(c2nc(-c3ccc(F)cc3)no2)C1 (centres undefined),scaled lipid accumulation score,[4],inactive: ≤ 0
same,scaled lipid accumulation score,[5],inactive: ≤ 0
O=c1oc(-c2ccc(C(F)(F)F)cc2)nn1Cc1cc(Cl)ccc1O,scaled lipid accumulation score,[5],inactive: 0.172
CC(=O)O[C@]1(C(C)=O)CCC2C3C=C(Cl)C4=CC(=O)CC[C@]4(C)C3CC[C@@]21C (some centres undefined) [Chlormadinone acetate],scaled lipid accumulation score,[5],active: 0.968
CN1CCCC(n2nc(Cc3ccc(Cl)cc3)c3ccccc3c2=O)CC1 (centres undefined),scaled lipid accumulation score,[5],active: 1.21
O=C(CNC(=O)c1ccc(Cl)cc1)NO [Benurestat],scaled lipid accumulation score,library stock concentration: 8.7 mM,inactive: ≤ 0
Cn1cc(-c2ccc(F)c(C(F)(F)F)c2)nc1C1CCN(c2ncnc3[nH]ncc23)CC1,scaled lipid accumulation score,[1],inactive: 0.021
same,scaled lipid accumulation score,[2],inactive: 0.015
same,scaled lipid accumulation score,[3],inactive: 0.054
same,scaled lipid accumulation score,[5],inactive: 0.371
CCOC(=O)[C@H](CCc1ccccc1)N[C@H]1CCc2ccccc2N(CC(=O)O)C1=O [Benazepril HCl],scaled lipid accumulation score,[4],inactive: ≤ 0
same,scaled lipid accumulation score,[5],inactive: ≤ 0
CCOC(=O)[C@H](CCc1ccccc1)N[C@H]1CCc2ccccc2N(CC(=O)O)C1=O,scaled lipid accumulation score,[5],inactive: ≤ 0
CCOC(=O)[C@H](CCc1ccccc1)N[C@H]1CCc2ccccc2N(CC(=O)O)C1=O [Benazepril hydrochloride],scaled lipid accumulation score,[5],inactive: ≤ -0.027 and inactive: 0.038
